From the supplement of paper PMC3334620
In all, about 33,000 sequences were measured (“E-score (-0.5 to 0.5)”: median about -0.032, highest 2% from about 0.36 on). The list shows a part of the results.

Target: T1, Sko1 (UniProt Q02100)
T1 sequence: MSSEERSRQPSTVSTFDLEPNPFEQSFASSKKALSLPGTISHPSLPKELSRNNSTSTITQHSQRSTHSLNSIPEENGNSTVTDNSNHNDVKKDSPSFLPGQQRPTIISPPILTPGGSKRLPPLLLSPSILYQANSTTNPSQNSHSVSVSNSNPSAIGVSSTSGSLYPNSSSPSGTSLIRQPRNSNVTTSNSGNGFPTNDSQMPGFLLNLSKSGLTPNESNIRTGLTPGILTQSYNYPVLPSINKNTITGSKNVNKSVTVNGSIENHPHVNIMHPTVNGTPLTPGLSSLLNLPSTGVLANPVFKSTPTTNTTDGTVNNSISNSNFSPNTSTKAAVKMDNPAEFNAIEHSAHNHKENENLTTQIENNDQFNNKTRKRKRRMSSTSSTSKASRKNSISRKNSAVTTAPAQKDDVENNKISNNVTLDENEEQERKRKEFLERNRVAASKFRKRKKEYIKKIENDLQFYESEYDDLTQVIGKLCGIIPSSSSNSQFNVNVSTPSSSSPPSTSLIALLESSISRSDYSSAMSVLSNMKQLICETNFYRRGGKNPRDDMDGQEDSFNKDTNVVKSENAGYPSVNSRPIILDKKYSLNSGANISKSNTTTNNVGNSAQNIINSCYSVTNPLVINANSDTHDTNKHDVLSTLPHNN
Assay: PBM E-score (8-mer binding enrichment) (E-score (-0.5 to 0.5)); higher = stronger / more preferred TF binding; most listed sequences are background and not binding sites
Details: protein concentration: 200 nM; construct: GST-full length
Procedure, shortened: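 Using PURExpress in vitro transcription/translation, GST-tagged yeast transcription factors were made in full-length or DNA-binding-domain form. These were applied at about 100-200 nM to double-stranded universal all-10-mer Agilent arrays, and bound protein was detected with fluorescent anti-GST. Scans were normalised with masliner before the Universal PBM Analysis Suite assigned E-scores to ungapped eight-base words pooled with their reverse complements.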

Row | Sequence | PBM E-score
1 | ATCTCTCC | -0.0492
2 | AAACAGGA | -0.0484
3 | GCCAACGC | -0.0889
4 | GATCAATC | -0.0437
5 | CCGTAGGA | -0.29
6 | CAGCGCTG | 0.0627
7 | CGTGGCCA | 0.0106
8 | AATGCGCC | -0.13
9 | GGAAGGCA | -0.221
10 | CCATTTTA | 0.0503
11 | ATTTCTCC | -0.109
12 | AACTTTCT | 0.0712
13 | ATAGTAGC | -0.0277
14 | CGGATCGC | -0.0397
15 | GGACGGCA | -0.0181
16 | GTGTGACA | 0.12
17 | AAGCTGAA | -0.217
18 | ACTTGCCG | -0.161
19 | ATCGAGTG | 0.0839
20 | GGAGCACC | -0.257
21 | CTGACAAC | -0.0757
22 | AGTATGGC | -0.181
23 | AGGTTTCG | -0.0654
24 | ATCAGGAC | 0.00553
25 | ATCGCCGC | -0.118

Row | Sequence | PBM E-score
26 | GTCCGCGA | -0.285
27 | AAGGTGCC | -0.153
28 | GAGAATGA | 0.163
29 | ACGGCTTC | -0.0896
30 | GGCCTCCA | -0.255
31 | GTTGATAA | 0.198
32 | CTGCAGCC | -0.0988
33 | CGACCACG | 0.131
34 | TCTTGTCA | 0.114
35 | AACGTCCG | 0.0592
36 | GATCACTA | -0.0212
37 | CGATAATA | 0.085
38 | TAAATTTA | 0.236
39 | CGTCCGTC | -0.102
40 | AGTCCGCA | -0.0685
41 | CTTCGTCC | -0.226
42 | GAGCGGTA | -0.0928
43 | ACAAAAGA | 0.153
44 | TAAAGCGA | 0.122
45 | ATGGGTAC | 0.0838
46 | CACGATGC | -0.0139
47 | AACCATCT | -0.21
48 | AGTTTAGG | -0.025
49 | AATGCAGA | 0.122
50 | CCCCTCGC | -0.239

Row | Sequence | PBM E-score
51 | CGTTCGAA | 0.12
52 | GCTGATAA | 0.117
53 | GGACTACA | -0.195
54 | CGGAAAAC | -0.0324
55 | CATAGATC | -0.0516
56 | TGGTGTAA | 0.086
57 | AAACTACG | 0.344
58 | AACTAAAA | 0.159
59 | CACTCCCA | -0.176
60 | CGCATGAG | -0.103
61 | AACGTATA | 0.406
62 | ATTCGTCG | 0.22
63 | ATTACAAT | 0.229
64 | ACATCCGT | -0.00561
65 | ATGGCTGG | -0.185
66 | CCGGGGTC | -0.333
67 | ATCAAGGC | -0.09
68 | ACGCAACA | 0.388
69 | GATCACCA | -0.171
70 | CTCAGCAC | -0.0584
71 | CACCAGCA | 0.0552
72 | AAACGGCC | -0.196
73 | CCTGGAAA | -0.0508
74 | CGGGTTGA | -0.237
75 | TACGCGTA | 0.387

Row | Sequence | PBM E-score
76 | GTGGAGAA | -0.102
77 | CCTTCGCA | -0.126
78 | GCTACCTA | 0.147
79 | ACTACGAA | 0.289
80 | GTTCCCTA | -0.141
81 | GTGATGCA | 0.249
82 | GGGGGAGA | -0.289
83 | GCTAGGCA | -0.26
84 | ACACCTTC | -0.04
85 | AGGACGGC | -0.139
86 | AGCCGCGG | -0.17
87 | ATTCGACA | -0.09
88 | AACCCTTA | 0.115
89 | TACAGCAA | 0.0691
90 | AACTGAAC | -0.208
91 | CGGGTTCC | -0.31
92 | AGGAAGGA | -0.175
93 | CATAAAAC | 0.0827
94 | CCAGCTGA | -0.118
95 | ATATGACA | 0.243
96 | CATGGCGA | -0.152
97 | ATGTTGGG | -0.168
98 | CTACCACA | -0.105
99 | CCGCCTGC | -0.185
100 | CCACTCAA | 0.0742

Row | Sequence | PBM E-score
101 | GTCGCCAA | -0.12
102 | GAATTTAA | 0.123
103 | TCACAACA | 0.251
104 | CACCAACA | -0.101
105 | AAGAACTA | 0.0187
106 | CATCTGTA | 0.116
107 | AGTGGCTC | -0.181
108 | AGGTACAG | -0.145
109 | TAGAAACA | 0.0497
110 | GATATTGA | 0.143
111 | TCGAGTCA | -0.00474
112 | CGTCTGGC | -0.0418
113 | CTACGCAG | 0.274
114 | GCTGTAAA | -0.0317
115 | ATCGCAGC | -0.188
116 | AGGCTCCG | -0.291
117 | CCGGCAGC | -0.26
118 | ATACACAA | 0.179
119 | AAACGGGG | -0.174
120 | GACCAGAC | -0.166
121 | CGGTCCCC | -0.368
122 | ACGCGGAG | -0.112
123 | AGGAGATA | 0.0168
124 | GGGCCGTA | -0.19
125 | CGTCTTAG | 0.0611

Row | Sequence | PBM E-score
126 | ATAGCAGG | -0.126
127 | CGCTGTAG | -0.145
128 | AACTCAGG | -0.0444
129 | CGCCTTGC | -0.171
130 | AGGATTTG | 0.061
131 | ACCCAGAA | -0.0519
132 | AGGACTAC | -0.228
133 | AAATTAGG | 0.212
134 | ATCCCTGC | -0.276
135 | AATAATTC | 0.212
136 | ATAATGAA | 0.207
137 | CAGGCACC | -0.219
138 | AAGAGTCC | -0.252
139 | ATTTAGGA | 0.0108
140 | GCCTCTGA | -0.0424
141 | CTCGTCAG | 0.176
142 | ACATGCCA | -0.0715
143 | CCGCTCTC | -0.259
144 | CCGTAACG | -0.103
145 | TCAGGAGA | -0.103
146 | GGAGAGCC | -0.241
147 | AACGTGTC | 0.192
148 | GAGGGAAC | -0.291
149 | GAGGTAAA | 0.161
150 | ACGGTATA | -0.00848

Row | Sequence | PBM E-score
151 | ACGTTGGG | 0.193
152 | ATCCTGCC | -0.221
153 | GCTTACAC | -0.137
154 | CCGCTCAC | -0.0552
155 | GGAACAAC | -0.125
156 | CCGTTTGA | -0.191
157 | CCGTCTGA | -0.224
158 | ACTTAAGA | 0.129
159 | ACAATAGC | -0.0393
160 | GTGCGGCA | 0.0044
161 | GAAACATA | 0.134
162 | AGGATGTC | -0.0225
163 | CTGGCGGA | -0.21
164 | CGATGACA | 0.283
165 | CTAGCCCA | -0.191
166 | ATCAGCTA | 0.104
167 | AGTTCAGA | -0.0766
168 | AGGACCTG | -0.38
169 | CGCTCACA | 0.0942
170 | ATAGACGA | 0.114
171 | CCATGAAG | -0.0295
172 | GCGCACTA | 0.0239
